In all, about 33,000 sequences were measured (“E-score (-0.5 to 0.5)”: median about -0.021, highest 2% from about 0.32 on). Some of the results follow.
What follows are sequences tested against T1, Zap1 (UniProt P47043) (assay: PBM E-score (8-mer binding enrichment) (E-score (-0.5 to 0.5)); higher = stronger / more preferred TF binding; most listed sequences are background and not binding sites). Conditions: protein concentration: 200 nM; construct: GST-full length.
T1 sequence: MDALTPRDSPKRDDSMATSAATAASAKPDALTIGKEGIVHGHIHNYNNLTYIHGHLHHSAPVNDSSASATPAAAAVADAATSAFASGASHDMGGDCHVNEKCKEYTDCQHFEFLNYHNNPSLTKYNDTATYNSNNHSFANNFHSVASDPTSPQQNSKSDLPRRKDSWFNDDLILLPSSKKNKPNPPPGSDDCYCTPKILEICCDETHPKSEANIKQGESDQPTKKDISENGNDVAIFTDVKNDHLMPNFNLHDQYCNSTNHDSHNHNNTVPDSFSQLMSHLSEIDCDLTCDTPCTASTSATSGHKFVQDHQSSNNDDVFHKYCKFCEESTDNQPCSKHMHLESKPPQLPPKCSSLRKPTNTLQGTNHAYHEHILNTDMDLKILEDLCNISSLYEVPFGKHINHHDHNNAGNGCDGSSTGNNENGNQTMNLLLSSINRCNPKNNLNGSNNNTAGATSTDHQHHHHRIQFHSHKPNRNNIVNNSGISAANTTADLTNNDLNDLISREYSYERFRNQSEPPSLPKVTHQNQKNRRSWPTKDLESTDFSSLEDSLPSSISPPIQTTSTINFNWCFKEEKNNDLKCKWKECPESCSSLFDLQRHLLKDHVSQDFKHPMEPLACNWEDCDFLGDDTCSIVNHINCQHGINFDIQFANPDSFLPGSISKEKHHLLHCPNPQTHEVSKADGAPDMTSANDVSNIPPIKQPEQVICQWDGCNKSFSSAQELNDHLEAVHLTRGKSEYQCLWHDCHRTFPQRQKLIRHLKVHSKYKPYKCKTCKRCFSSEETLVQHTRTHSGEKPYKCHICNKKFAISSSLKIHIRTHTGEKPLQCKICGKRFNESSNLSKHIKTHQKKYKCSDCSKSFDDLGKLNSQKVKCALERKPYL
Method in brief: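 The E-score, a modified Wilcoxon-Mann-Whitney statistic, was computed by the Universal PBM Analysis Suite for every ungapped eight-base word pooled with its reverse complement. Scans behind it were normalised with masliner after bound GST-tagged yeast transcription factors were detected with fluorescent anti-GST. The proteins, at about 100-200 nM, had been applied to universal all-10-mer Agilent arrays made double-stranded by primer extension.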

Row | Sequence | PBM E-score
1 | TTGTAAAA | 0.147
2 | AGCGAATC | -0.083
3 | GATACTCC | -0.263
4 | GCCTAGAC | -0.255
5 | CAGTATAA | 0.197
6 | AAACAGTC | -0.124
7 | TCGTTTCA | -0.0147
8 | CGAGTCGA | 0.116
9 | ACATTGCC | -0.177
10 | CGGGAGAG | -0.165
11 | CTTGACGA | -0.214
12 | GATACCAA | 0.118
13 | AATAATAG | -0.044
14 | CTCGCAAC | 0.137
15 | GCCTACGC | -0.221
16 | CATCGCGC | -0.0176
17 | AAAGTATG | -0.0746
18 | ACGTGGTA | -0.0169
19 | CAAAAAAG | 0.275
20 | ATTAATCC | -0.0662
21 | CCCACGCA | 0.0623
22 | TCTGCTAA | -0.16

Row | Sequence | PBM E-score
23 | ACGTGGTC | 0.0404
24 | AGTTAATG | -0.0321
25 | ACTGGATA | 0.00183
26 | CTTGCTAC | 0.0655
27 | ACACTTAA | 0.0631
28 | AACCCCGT | 0.277
29 | ATGTAGGG | -0.0619
30 | CCGACGTC | -0.296
31 | TAGAGATA | 0.111
32 | CTATTCTC | -0.162
33 | CATACTAA | 0.218
34 | CTGGGCAC | -0.158
35 | ACTGATAA | 0.127
36 | ACTCCTCT | -0.246
37 | AAGGAAAT | 0.0204
38 | CGGCTTAC | -0.12
39 | ATCTGTCC | -0.318
40 | GTGCCGAA | 0.0261
41 | AGGCAGGA | -0.3
42 | CGCAGCAG | -0.0685
43 | AAGAACAG | 0.147
44 | CGAGAGTC | -0.103

Row | Sequence | PBM E-score
45 | AGTTGTAC | 0.146
46 | CAAAGAAG | 0.0538
47 | CCATGGAG | 0.115
48 | GACAGCAC | 0.0337
49 | AGCGGGTC | -0.148
50 | GACAGAAA | 0.17
51 | CTCACGAA | -0.00515
52 | GCACATTA | -0.0876
53 | AACTCGCA | -0.0412
54 | AGGAGGGG | -0.0628
55 | AAATTGAA | 0.0405
56 | ATATGGGA | 0.0061
57 | CCTAGCCA | -0.0693
58 | AAGAGAAC | 0.0481
59 | ACCACTAA | 0.281
60 | ACGACAAT | -0.00907
61 | AAGGTGGT | 0.28
62 | CGAACAAG | 0.00111
63 | ATTAGAGA | -0.0494
64 | GCATGATA | -0.0633
65 | CCAGTCAG | -0.133
66 | AGTGTGTC | -0.147

Row | Sequence | PBM E-score
67 | ACACCCGT | 0.201
68 | GTCCGAAA | 0.187
69 | CGCAAGGA | -0.00607
70 | GGGCTATA | -0.087
71 | CGCGGAGC | -0.244
72 | GGTTTGAA | 0.201
73 | CATAGTGC | -0.16
74 | AAGTTAGC | 0.031
75 | ATATTCCG | 0.0776
76 | TGTGCACA | -0.0575
77 | ATACGACG | -0.0416
78 | CAACGTAG | -0.0349
79 | CCGTTAGA | 0.07
80 | GCAGACGA | -0.192
81 | GCGGCACC | 0.0425
82 | CTGACCCA | -0.11
83 | CGCTCTTA | -0.0573
84 | CCCGTTGC | -0.154
85 | GCTGCGAC | -0.141
86 | GCAAGTTA | 0.0383

Reference: the supplement of paper PMC3334620
